From PubChem BioAssay AID686978 (National Center for Advancing Translational Sciences (NCATS), 2013)
Several values for one entry are separate records, joined by “and”; a condition that tells them apart may be missing. Identical values can stand only once. About 64,000 (15%) of roughly 420,000 compounds were called active. The shares of active, inactive and inconclusive entries below differ from those in the screen. Calls come from the whole dose curve; as a rule, active = well fitted inhibition curve with a large enough effect; inconclusive = small, poorly fitted or top-dose-only effect; inactive = flat fitted curve, though single readings scatter. Where the call is inconclusive, the potency comes from a doubtful curve fit.

Test: qHTS for Inhibitors of human tyrosyl-DNA phosphodiesterase 1 (TDP1): qHTS in cells in absence of CPT; note: nearly all actives have a fitted effect of over 55% in size
Conditions: DT40 Tdp1-/- hTDP1 cells, no CPT, ATP luminescence, 48 h; activity change, negative = growth inhibition: at 46.2 µM (top of the series) unless noted
Outline: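 No-CPT arm: Tdp1-/-;hTDP1 DT40 cells (400/well) plus compounds, incubated ≥48 hr at 37 °C. Readout CellTiter-Glo luminescence.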
% is set by controls: 0 for no effect and ±100 for the full control effect; potency is the fitted concentration of half-maximal effect; tags give direction and shape of the fitted curve.

SMILES | Potency | activity change, negative = growth inhibition
Cc1ccc(CNC(=O)c2ccc(CS(=O)Cc3cccc(Cl)c3)o2)cc1 (stereo not given) | inconclusive: 23.1 µM [inhibitor, single point] | 
Cc1cc(N2CCN(C)CC2)nc2ccc(NC(=O)CCC(=O)NCCc3ccc(Cl)cc3)cc12 | inconclusive: 23.1 µM [inhibitor, single point] | 
COc1ccc(NC(NC(=O)c2cccnc2)C(Cl)(Cl)Cl)cc1 (stereo not given) | inactive | 
CN(C)CC(=O)Nc1ccc2cn[nH]c2c1 | inactive | 
O=C(CCCc1nc2ccccc2s1)NNC(=O)CCN1CCN(Cc2ccccc2)CC1 | inactive | 
CN(Cc1cnc2nc(N)nc(N)c2n1)c1ccc(C(=O)NC(CCC(=O)O)C(=O)O)c2ccccc12 (stereo not given) | active: 0.0517 µM | 
Cc1ccc(Nc2c(-c3ccccn3)nc3cc(C)ccn23)cc1 | active: 2.91 µM | 
COc1ccc(CCNC(=O)CSc2cn(Cc3cccc(C)c3)c3ccccc23)cc1OC | inconclusive: 29.1 µM [inhibitor, single point] | 
COC(=O)c1c(NC(=O)CC2SC(N)=NC2=O)sc(C)c1C (stereo not given) | inactive | 
Cc1cccc(-c2ccc3[nH]c4c(c3c2)CCN2C[C@@H]([C@H](C)O)[C@@H](N(C)C(=O)Nc3ccc(F)cc3)C[C@@H]42)c1 | active: 18.4 µM | 
NC(N)=NN=Cc1ccnc2ccccc12 | inconclusive: 11.6 µM [inhibitor, partial curve] | 
O=C(N=C1SC2CS(=O)(=O)CC2N1Cc1ccccc1)C1CCCCC1 (stereo not given) | inactive | 
CC(=O)c1ccc(S(=O)(=O)Nc2ccc(-c3ccc4nnc(C)n4n3)cc2)cc1 | inconclusive: 14.6 µM [inhibitor, partial curve] | 
O=C(NCC(c1ccco1)N1CCCC1)c1ccccc1Sc1ccc(C(F)(F)F)cc1[N+](=O)[O-] (stereo not given) | inconclusive: 16.4 µM [inhibitor, single point] | 
CCCCNS(=O)(=O)c1ccc(NC(=O)C2c3ccccc3Oc3ccccc32)cc1 | inconclusive: 18.4 µM [inhibitor, partial curve, poor fit] | 
CCC(=O)N1CCN(c2nc(-c3ccccc3)c3c(c2C#N)CCCC3)CC1 | inconclusive: 29.1 µM [inhibitor, single point] | 
CCN1CCN(C(=O)C2CCN(Cc3cc(Cl)ccc3O)CC2)CC1 | inactive | 
COc1ccc([C@H]2CC(=O)C=C(c3ccc4[nH]ccc4c3)C2)cc1OC | inconclusive: 23.1 µM [inhibitor, single point] | 
O=C(OCC(=O)c1c[nH]c2ccccc12)c1cc(Br)ccc1O | inconclusive: 29.1 µM [inhibitor, single point] | 
CCOc1ccc(-n2c(SCC)nc3c(c2=O)SCC3)cc1 | inconclusive: 10.3 µM [inhibitor, partial curve] | 
CCOc1cc(C(=O)NCC(c2ccc(N(C)C)cc2)N2CCOCC2)cc(OCC)c1OCC (stereo not given) | active: 18.4 µM | 
COc1ccc(Cl)cc1C(=O)NNC(=O)C1COc2ccccc2O1 (stereo not given) | inconclusive: 23.1 µM [inhibitor, single point] | 
Cc1ccn2c(CNC(C)CCn3cccn3)c(C(=O)N3CCCCCC3)nc2c1 (stereo not given) | inactive | 

SMILES | Potency | activity change, negative = growth inhibition
Cc1cc(Nc2cccc(C(F)(F)F)c2)nc2ccc(NC(=O)c3cccc(Cl)c3)cc12 | active: 6.51 µM | 
COc1ccc(CNc2nc(Cl)nc3nc[nH]c23)cc1 | inactive and inconclusive: 22.4 µM [inhibitor, single point] | 
COc1cccc(NC(=S)NN=C2CCC(C(C)(C)C)CC2)c1 (stereo not given) | inconclusive: 18.4 µM [inhibitor, single point] | 
CC(C)N(C)c1ncnc2c1ncn2[C@H]1CN(CCc2ccccc2)C[C@@H](CO)O1 | inconclusive: 25.9 µM [inhibitor, single point] | 
O=C(Cn1cc(S(=O)(=O)c2ccccc2)c(=O)c2cc(Cl)ccc21)Nc1ccc2c(c1)OCO2 | inconclusive: 23.1 µM [inhibitor, single point] | 
O=C(/C=C/c1cccs1)Nc1ccncc1 | inconclusive: 29.1 µM [inhibitor, single point] | 
COc1ccc(C(=O)N2CCN(c3ccccn3)CC2)cc1 | inactive | 
COC(=O)c1cc(Br)cn1S(=O)(=O)c1ccccc1 | inconclusive: 14.6 µM [inhibitor, partial curve] | 
CCCNC(=S)N1CCC(C(=O)c2ccc(Cl)cc2)CC1 | inconclusive: 18.4 µM [inhibitor, partial curve] | 
COc1ccc([C@H]2CC(=O)c3c(O)cc(O)cc3O2)cc1O | inconclusive: 29.1 µM [inhibitor, single point] | 
C=CCn1c(SCC(=O)N2CCOCC2)nc2sc3c(c2c1=O)CCCC3 | active: 18.4 µM | 
Oc1ccc(C=NNC(=S)Nc2ccc(F)cc2)c(O)c1 | inconclusive: 29.1 µM [inhibitor, single point] | 
O=C1Nc2ccccc2C12OCC1(CO2)COC2(OC1)C(=O)Nc1ccccc12 (stereo not given) | inactive | 
CCOc1ccc(CNCc2c(C(=O)O)c(C)n(Cc3c(F)cccc3Cl)c2C)cc1OC | inconclusive: 23.1 µM [inhibitor, single point] | 
C=CCn1c(COc2ccc(F)cc2)nnc1SC(C)C(=O)NCC1CCCO1 (stereo not given) | inactive | 
O=S(=O)(Cc1cc(-c2ccccc2Cl)no1)c1ccccc1 | inactive | 
CCCCN(CCCNC(=O)c1cc(Nc2ccc(OC)c(OC)c2)nc2ccccc12)c1ccccc1 | active: 13 µM | 
CC(C)(C)OC(=O)N(CCc1ccccc1)Cc1cccc(OCc2cccc(NC(=O)C3CCCC3)c2)c1 | inconclusive: 29.1 µM [inhibitor, single point] | 
COc1ccccc1NC(=O)c1nn(-c2cccc(C(F)(F)F)c2)ccc1=O | inconclusive: 29.1 µM [inhibitor, single point] | 
CC(C)(C)c1csc(N/N=C/c2ccc(O)cc2)n1 | inconclusive: 25.9 µM [inhibitor, single point] | 
Cc1cccc(C)c1-n1nnnc1C1c2ccccc2C(=O)N1CCc1ccccc1F (stereo not given) | active: 16.4 µM | 
OC1(c2ccc(Cl)cc2)CCN(Cc2nc(-c3cnccn3)no2)CC1 | inconclusive: 18.4 µM [inhibitor, partial curve] | 
O=c1c2ccccc2c(C=Nc2cccc(O)c2)c(O)n1-c1ccc2c(c1)OCO2 | active: 11.6 µM | 

SMILES | Potency | activity change, negative = growth inhibition
CC1CCCN(S(=O)(=O)c2ccc3c(c2)c(=O)nc2ccccn23)C1 (stereo not given) | inconclusive: 20.6 µM [inhibitor, single point] | inconclusive: -37.9% [inhibitor]
Cc1ccccc1C(=O)Nc1ccc(C(=O)N/N=C/c2ccncc2)cc1 | inactive | 
Cc1ccc(/C([O-])=C(/C(=S)NCc2ccc3c(c2)OCO3)[n+]2ccc(N(C)C)cc2)c(C)c1 | inconclusive: 16.4 µM [inhibitor, partial curve] | 
COC(=O)[C@@H](Cc1c[nH]c2ccccc12)NC(=O)c1cc(=O)[nH]c2ccccc12 | inactive | 
CC1CC(C)CN(c2ccc(NS(=O)(=O)c3ccccc3)cc2C(=O)O)C1 (stereo not given) | inactive | 
O=C(CC(=O)c1cccc([N+](=O)[O-])c1)Nc1ccccc1Cl | inconclusive: 29.1 µM [inhibitor, single point] | 
N#Cc1sc(NCc2ccccn2)nc1Cl | inactive | 
COc1ccc(-c2cn(CC3CCCCC3)nn2)cc1 | inactive | 
CC(=O)O[C@@]12CO[C@@H]1C[C@H](O)[C@@]1(C)C(=O)[C@H](O)C3=C(C)[C@@H](OC(=O)[C@H](O)[C@@H](NC(=O)OC(C)(C)C)c4ccccc4)C[C@@](O)([C@@H](OC(=O)c4ccccc4)[C@H]21)C3(C)C | active: 3.3 nM and active: 1.2 nM | 
CC(C)(C)C(=O)Cn1ncc(N2CCCC2)c(Br)c1=O | inactive | 
CCOC(=O)c1c(CN2CCOCC2)n(C)c2cc(Br)c(O)c(CN(C)C)c12 | inconclusive: 18.4 µM [inhibitor, single point] | 
CCCCN(CCCC)c1ncnc2nc[nH]c12 | inconclusive: 18.4 µM [inhibitor, partial curve] | 
CCOc1ccc(C2N(c3ccc(F)cc3)C(=O)C3CCCN32)cc1OC (stereo not given) | inactive | 
O=C(Nc1ccccc1)OCCOc1ccccc1 |  | inconclusive: -31.9% [inhibitor]
COc1cc([N+](=O)[O-])cc(/C=N\NC(=O)C2COc3ccccc3O2)c1O (stereo not given) | inconclusive: 16.4 µM [inhibitor, single point] | 
CC(C)Cn1c(SCC(=O)NC(=O)Nc2ccc3c(c2)OCCO3)nc2ccccc2c1=O | inconclusive: 25.9 µM [inhibitor, single point] | 
COc1ccc(OC)c(NC(=O)CCNS(=O)(=O)c2cc(Br)cnc2N)c1 | inactive | 
Cc1ccccc1-n1c(SCC(=O)c2c(N)n(C3CC3)c(=O)[nH]c2=O)nnc1N1CCOCC1 | inactive | 
Cc1nn(-c2ccccc2)c(C)c1-c1cc(C(=O)N/N=C/c2ccc(O)cc2)[nH]n1 | inconclusive: 20.6 µM [inhibitor, partial curve] | 
CC(C)OC(=O)c1ccc(S(N)(=O)=O)o1 | inconclusive: 6.51 µM [inhibitor, single point] | 
CCOC(=O)CC1C(=O)NCCN1C1CCCC1 (stereo not given) | inactive | 
Cc1ccccc1Nc1c(-c2cccnc2)nc2ccc(Cl)cn12 | inconclusive: 18.4 µM [inhibitor, single point] | 
CCc1nn2c(=O)c(S(=O)(=O)Nc3ccc(Cl)cc3)c(C)nc2s1 | inconclusive: 16.4 µM [inhibitor, single point] and inconclusive: 18.4 µM [inhibitor, single point] | 
